This is one part of the list.
What was measured:
[1] = system: HSkMC (human skeletal muscle cells); experiment: cytotoxicity call (relative viability < 0.9); conditions: 10 µM
[2] = system: HepG2; experiment: cytotoxicity call (relative viability < 0.9); conditions: 10 µM
[3] = system: S. aureus RN4220; experiment: growth inhibition call (relative growth <= 0.2); conditions: 50 µM

Row | Compound | cytotoxicity call [1] | cytotoxicity call [2] | growth inhibition call [3]
1 | C[C@@H]1CCCCO[C@@H](CN(C)C(=O)Nc2cccc3ccccc23)[C@H](C)CN([C@@H](C)CO)C(=O)c2cc(NC(=O)Nc3ccc(C(F)(F)F)cc3)ccc2O1 | inactive | inactive | inactive
2 | COc1ccc(NC(=O)N(C)C[C@@H]2Oc3ccc(NC(=O)CCCCCC(=O)Nc4ccccc4N)cc3C(=O)N([C@@H](C)CO)C[C@@H]2C)cc1 | inactive | inactive | inactive
3 | COCCNC(=O)C[C@@H]1CC[C@@H]2[C@@H](COc3ccc(NS(=O)(=O)c4ccc(Cl)cc4)cc3C(=O)N2C)O1 | inactive | inactive | inactive
4 | C[C@@H]1CCCCO[C@@H](CN(C)Cc2ccncc2)[C@@H](C)CN([C@@H](C)CO)C(=O)c2cc(NC(=O)Nc3ccc4c(c3)OCO4)ccc2O1 | inactive | inactive | inactive
5 | NC(=O)C(C(N)=O)[C@H]1CCS(=O)(=O)C1 | inactive | inactive | inactive
6 | C[C@H]1CN([C@@H](C)CO)C(=O)Cc2cc(NC(=O)Nc3cc(Cl)cc(Cl)c3)ccc2O[C@H]1CN(C)S(=O)(=O)c1ccc(Cl)cc1 | active | active | inactive
7 | Cc1noc(C)c1S(=O)(=O)N(C)C[C@@H]1Oc2ccc(NC(=O)Nc3ccc4c(c3)OCO4)cc2CC(=O)N([C@@H](C)CO)C[C@H]1C | inactive | inactive | inactive
8 | COc1ccc(C=CC(=O)c2ccc(O)cc2O)cc1 | inactive | inactive | inactive
9 | C[C@@H]1CN([C@@H](C)CO)C(=O)c2cc(NS(C)(=O)=O)ccc2O[C@@H](C)CCCCO[C@@H]1CN(C)Cc1ccncc1 | inactive | inactive | inactive
10 | C[C@@H]1CCCCO[C@@H](CN(C)Cc2ccc(Cl)c(Cl)c2)[C@H](C)CN([C@@H](C)CO)C(=O)c2cc(NS(=O)(=O)c3cccs3)ccc2O1 | inactive | inactive | inactive
11 | N#Cc1ccc(-c2ccccc2)nc1 | inactive | inactive | inactive
12 | C[C@@H]1CCCCO[C@@H](CN(C)C(=O)Nc2ccc3c(c2)OCO3)[C@@H](C)CN([C@H](C)CO)C(=O)c2cc(NC(=O)Nc3ccc(F)cc3)ccc2O1 | inactive | inactive | inactive
13 | CN1C[C@@H]2CN(C(=O)CO)C[C@@H]2c2ccccc21 | inactive | inactive | inactive
14 | O=C(CCCCC(=O)Nc1c(I)cc(I)c(C(=O)O)c1I)Nc1c(I)cc(I)c(C(=O)O)c1I | inactive | inactive | inactive
15 | Cc1noc(C)c1NC(=O)Nc1ccc2c(c1)C(=O)N([C@@H](C)CO)C[C@H](C)[C@@H](CN(C)C(=O)Nc1ccc(C(F)(F)F)cc1)OCCCC[C@@H](C)O2 | inactive | inactive | inactive
16 | C[C@@H]1CCCCO[C@@H](CN(C)C(=O)Nc2ccc(F)cc2)[C@@H](C)CN([C@H](C)CO)C(=O)c2cc(NC(=O)Nc3cccc4ccccc34)ccc2O1 | inactive | inactive | inactive
17 | C[C@H]1CCCCO[C@H](CN(C)C(=O)Cc2ccccc2)[C@@H](C)CN([C@@H](C)CO)C(=O)c2cc(NC(=O)Nc3ccccc3)ccc2O1 | inactive | inactive | inactive
18 | CC(CN(C)C)CN1c2ccccc2CCc2ccccc21.O=C(O)C=CC(=O)O (stereo not given) | inactive | active | inactive
19 | CC1(C)NCS[C@H]1C(=O)O | inactive | inactive | inactive
20 | CN(C)CC(=O)N1[C@@H]2Cn3c(cccc3=O)[C@H]1[C@@H](C(=O)NCc1ccccc1)[C@@H]2CO | inactive | inactive | inactive
21 | COCC(=O)Nc1ccc2c(c1)C(=O)N(C)C[C@@H](OC)[C@H](C)CN(C(=O)Cc1cccnc1)[C@H](C)CO2 | inactive | inactive | inactive
22 | C[C@H](CO)N1C[C@H](C)[C@@H](CN(C)S(=O)(=O)c2cn(C)cn2)Oc2c(NC(=O)c3ccc(-c4nccs4)cc3)cccc2C1=O | inactive | inactive | inactive
23 | CO[C@H]1CN(C)C(=O)c2cc(NS(=O)(=O)CC(F)(F)F)ccc2OC[C@@H](C)N(Cc2ccccn2)C[C@H]1C | inactive | inactive | inactive
24 | COc1ccc(S(=O)(=O)N(C)C[C@@H]2OCc3cn(nn3)CCCC(=O)N([C@@H](C)CO)C[C@@H]2C)cc1 | inactive | inactive | inactive
25 | COc1cc(/C=C/C(=O)O[C@H]2CC[C@]34C[C@]35CC[C@]3(C)[C@@H]([C@@H](C)CCC=C(C)C)CC[C@@]3(C)[C@@H]5CC[C@@H]4C2(C)C)ccc1O | inactive | inactive | inactive
